The BET-seq Pho4 binding data (Le et al. 2018)
Some of the results follow. These are noisy estimates, calculated here from bound and input reads.

Each sequence was assayed against T1, Pho4 (S. cerevisiae) (UniProt P07270) (assay: relative binding free energy (BET-seq); higher = weaker binding). Settings: reference: library average.
T1 sequence: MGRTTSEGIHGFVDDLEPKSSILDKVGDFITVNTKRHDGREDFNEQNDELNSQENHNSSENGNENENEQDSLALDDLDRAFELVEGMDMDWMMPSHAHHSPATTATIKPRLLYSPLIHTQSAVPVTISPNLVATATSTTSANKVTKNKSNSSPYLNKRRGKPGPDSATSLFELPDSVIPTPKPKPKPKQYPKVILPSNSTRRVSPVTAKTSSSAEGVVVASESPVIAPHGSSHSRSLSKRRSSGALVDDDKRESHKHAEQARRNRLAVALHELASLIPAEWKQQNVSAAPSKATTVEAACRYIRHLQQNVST

Sequence	relative binding free energy [kcal/mol]
GCGATCACGTGGGTGT	-0.07
GTAGCCACGTGTGGCG	0.02
TTGATCACGTGGTTAA	0.11
AAGGGCACGTGGTCCG	0.01
TGATGCACGTGTCGTC	0.08
TGGACCACGTGCTGGG	-0.06
AGGGACACGTGGGCAG	-0.05
GTCGGCACGTGGCGGC	-0.1
TACGTCACGTGGGGCA	-0.07
GGATTCACGTGCGTGA	0.19
ATGGTCACGTGGATAT	0.12
TATGACACGTGTGTTA	-0.06
GTGGTCACGTGGTGTT	0.09
TGTCACACGTGGGCGT	-0.14
CTTTTCACGTGTCGTT	0.43
ATCATCACGTGGGAGG	0.11
GTCGCCACGTGGCGGG	-0.14
GATGGCACGTGTGGTC	0.02
TGACTCACGTGGTGGA	0.03
CTTAACACGTGTGTGT	-0.05
TATTGCACGTGATCGT	0.05
GCGGTCACGTGTCGGG	0.15
TAGGCCACGTGGTGAT	-0.25

Sequence	relative binding free energy [kcal/mol]
TTTAGCACGTGGGGTT	-0.14
GAGAACACGTGTTGGG	0.08
AAGCACACGTGGGAGG	0.13
GGGCACACGTGATGGG	0.24
TAGATCACGTGGTTTG	0.14
GTGAACACGTGTCGGA	0.16
TGCTGCACGTGGGTGA	-0.11
CAGTTCACGTGTGTTA	0.4
AGGTACACGTGCGGGC	0.07
GTTATCACGTGAAGGG	0.39
TTAAGCACGTGTTTGC	-0.18
TGTAGCACGTGAAGTT	0.2
TGGGTCACGTGCGCGG	-0.09
ATGAACACGTGAGTAT	0.29
GTTAGCACGTGCGTAT	-0.15
ATGTACACGTGATGTT	0.14
GGTGTCACGTGCAGTG	0.12
GTCTACACGTGGGTTA	0.1
ATGTGCACGTGCGATT	-0.02
ACAGACACGTGGGGGT	-0.13
GAGGTCACGTGAGGGT	0.27
ATAGTCACGTGTTGGA	0.16
TTTGACACGTGGGGCC	0.01

Sequence	relative binding free energy [kcal/mol]
TGCGGCACGTGGCAGT	-0.18
TTCAGCACGTGGTGGC	-0.03
TTTTTCACGTGAGCAT	0.34
TGTGTCACGTGATGAT	0.27
TATTCCACGTGATGTA	0.11
TTGCACACGTGTGTTC	0.08
TTCATCACGTGAGGTG	0.36
TTCAGCACGTGGAGTG	-0.02
ACGATCACGTGTTAGG	0.14
CCATTCACGTGGGGGG	0.17
AGTTGCACGTGTGGTC	0.13
GGTCTCACGTGGAGTG	0.26
TGAGGCACGTGATAAT	0.01
AGCGGCACGTGCTGTT	-0.23
GATGTCACGTGTGTTT	0.23
GTCGGCACGTGCAGTT	-0.07
AATAACACGTGTGAGG	0.17
TGCCCCACGTGGGGTG	-0.3
ATTTACACGTGGTGTT	0.03
CGCGGCACGTGTTTGG	-0.21
TGTGTCACGTGCACGA	0.11
GTTCTCACGTGAGAGG	0.36
AGGTACACGTGGCTTT	-0.09

Sequence	relative binding free energy [kcal/mol]
GTATTCACGTGGCGAG	0.21
TCAGTCACGTGTGGGG	0.08
GTGTTCACGTGTGGTA	0.32
TGGTGCACGTGACCGT	0.08
ATTCACACGTGAGTGG	0.17
AGGGACACGTGAAGTT	0.3
ATGGTCACGTGGGACA	0.05
CTTTGCACGTGGGCGA	-0.21
AGTTGCACGTGCTCGT	-0.07
TTTGCCACGTGACGGT	-0.07
AGTATCACGTGTCGGC	0.12
CACGGCACGTGGGGTA	-0.33
AGGGACACGTGGCAGG	-0.09
TATTTCACGTGGGCTT	0.25
ATTATCACGTGCGATT	0.19
TACGACACGTGTGGGA	0.11
GTGGACACGTGGTGAT	0.15
CGTTGCACGTGCGTTG	-0.17
TTCTACACGTGGTAGG	0.04
GTCATCACGTGTATAG	0.19
GTGAGCACGTGTTGAA	-0.1
TTGGACACGTGAAAGG	0.23
AATGTCACGTGCGTAT	-0.05

Sequence	relative binding free energy [kcal/mol]
GGATGCACGTGTTCAT	0.22
ATAAGCACGTGGGAGT	-0.13
ATGAGCACGTGGATGA	-0.08
TATGGCACGTGTCGGG	-0.04
TGGTCCACGTGTTTGC	0.04
AGGGTCACGTGGATAG	0.15
GTTTTCACGTGGACTG	0.3
GGTCACACGTGGGCGT	0.01
GATATCACGTGTAGGA	0.22
TAGTGCACGTGGGAGA	-0.03
ATGTTCACGTGCGTTA	0.31
GTTTGCACGTGGTGAG	0.01
TTGTACACGTGGAGCG	0.07
GGGGACACGTGTGGCC	0.12
TATTTCACGTGATCGA	0.26
AATTGCACGTGGGAAG	0.05
CGGGGCACGTGCTGTG	-0.3
TTCAGCACGTGACGGT	0.03
TTTGACACGTGAAGCG	0.38
TGTCCCACGTGTTTGG	-0.07
AGGGCCACGTGTTGTA	-0.07
AGTTGCACGTGTTATC	0.04
TTTTGCACGTGCGTTA	-0.06
